PubChem BioAssay AID720708 (National Center for Advancing Translational Sciences (NCATS), 2013)
About 660 (0.18%) of roughly 360,000 compounds were called active. This list was built around the results that the source calls inconclusive (neither active nor inactive); the mix of calls is not that of the screen. Calls follow the shape of the dose curve; as a rule, active = well fitted inhibition curve with a large enough effect; inconclusive = small, poorly fitted or top-dose-only effect; inactive = no such curve, though single readings can be large or run the other way. Potencies of inconclusive entries are left out as doubtful fits.

What follows are compounds tested against Rap guanine nucleotide exchange factor 4 (Homo sapiens) (UniProt Q8WZA2) (assay: qHTS for Antagonist of cAMP-regulated guanine nucleotide exchange factor 2 (EPAC2): primary screen). Conditions: EPAC2 GEF exchange of Rap1B-BODIPY-GDP, fluorescence; activity, negative = inhibition: at 114 µM (top of the series) unless noted.
Chain of UniProt Q8WZA2 (Q8WZA2 whole entry, looked up): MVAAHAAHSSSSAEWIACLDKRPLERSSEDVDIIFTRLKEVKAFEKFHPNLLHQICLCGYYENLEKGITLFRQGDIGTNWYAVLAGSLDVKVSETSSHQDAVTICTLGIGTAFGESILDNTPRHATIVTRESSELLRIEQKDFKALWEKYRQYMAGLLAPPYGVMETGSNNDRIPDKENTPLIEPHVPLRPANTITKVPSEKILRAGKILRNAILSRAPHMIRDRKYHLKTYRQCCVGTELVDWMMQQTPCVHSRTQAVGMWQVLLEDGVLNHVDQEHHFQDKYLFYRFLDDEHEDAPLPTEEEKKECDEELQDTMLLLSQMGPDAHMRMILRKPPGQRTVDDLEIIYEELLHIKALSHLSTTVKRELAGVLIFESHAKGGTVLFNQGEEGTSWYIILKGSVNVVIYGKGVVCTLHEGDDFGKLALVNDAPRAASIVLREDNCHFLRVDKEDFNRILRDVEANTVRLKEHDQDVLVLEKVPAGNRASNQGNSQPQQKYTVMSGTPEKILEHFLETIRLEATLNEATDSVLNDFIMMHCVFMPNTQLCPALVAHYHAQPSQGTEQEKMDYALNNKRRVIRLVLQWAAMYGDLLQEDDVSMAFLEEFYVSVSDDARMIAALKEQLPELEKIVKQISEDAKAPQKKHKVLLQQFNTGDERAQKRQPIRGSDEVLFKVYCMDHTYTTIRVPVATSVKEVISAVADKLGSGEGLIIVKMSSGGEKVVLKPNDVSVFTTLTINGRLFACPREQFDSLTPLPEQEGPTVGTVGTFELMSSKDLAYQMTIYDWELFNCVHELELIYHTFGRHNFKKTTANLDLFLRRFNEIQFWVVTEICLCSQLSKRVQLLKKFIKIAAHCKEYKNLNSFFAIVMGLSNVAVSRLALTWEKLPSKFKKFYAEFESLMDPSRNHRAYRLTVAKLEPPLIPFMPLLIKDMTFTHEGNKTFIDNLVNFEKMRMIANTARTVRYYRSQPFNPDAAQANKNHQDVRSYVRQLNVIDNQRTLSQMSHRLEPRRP
% is scaled to controls: 0 for no effect and ±100 for the full control effect; potency is read from the fitted curve at half-maximal effect; tags tell the direction and shape of the fitted curve.
Also: nearly all actives have a fitted effect of over 45% in size.

Compound	Potency	activity, negative = inhibition
OCc1ccc(-c2nn(Cc3ccccc3)c3ccccc23)o1	inactive	–
O=C(OCC(=O)c1c[nH]c2ccccc12)c1ccc([N+](=O)[O-])s1	inconclusive [inhibitor, partial curve]	–
Cc1cc(NS(=O)(=O)c2ccc(NC(=S)NC(=O)/C=C/c3ccccc3)cc2)no1	inconclusive [inhibitor, partial curve]	–
O=C(Nc1c(-c2ccc3c(c2)OCO3)[nH][nH]c1=O)c1ccccc1	inconclusive [inhibitor, single point]	–
CC1(Cc2ccccc2OC(F)(F)F)C(=O)Nc2ccc(OC(F)(F)F)cc21 (centres undefined)	inconclusive [inhibitor, full curve]	–
CC(=O)c1ccc(OC2(C)CCN(CCOc3ccc(C)cc3)C2)cc1 (centres undefined)	inconclusive [inhibitor, full curve, poor fit]	–
Cc1ccc(-c2csc(NC(=O)c3ccc(C)o3)n2)cc1	inactive	–
CCCCNC(=O)CSc1nnc(Cc2ccc(Cl)c(Cl)c2)c(=O)[nH]1	inconclusive [inhibitor, partial curve]	–
O=[N+]([O-])c1ccc(F)cc1OCc1nc(-c2cccs2)no1	inactive	–
COc1ccc(OC)c(NC(=O)C2(C)CCN2Cc2ccsc2)c1 (centres undefined)	inconclusive [inhibitor, full curve]	–
Cc1ccc2oc(=O)c(/C=C(\O)c3ccco3)nc2c1	inactive	–
O=c1[nH][nH]c(-c2ccccc2O)c1C(C[N+](=O)[O-])c1ccc(Br)cc1 (centres undefined)	active: 11.2 µM	–
Cc1ccc(S(=O)(=O)N2CCC(=O)N(C(COCc3cccc(C(F)(F)F)c3)C(C)C)CC2)cc1 (centres undefined)	inconclusive [inhibitor, full curve, poor fit]	–
CCCn1cc(SCC(=O)NCc2ccc3c(c2)OCO3)c2ccccc21	inconclusive [inhibitor, full curve]	–
COCCn1c(-c2ccc(OC)cc2)c(-c2ccc(OC)cc2)oc1=O	active: 35.5 µM	–
CCCCCCC=C1CCC(CN2CCCC2)C1=O (centres undefined)	inconclusive [inhibitor, partial curve, poor fit]	–
CCN1C(=O)[C@H]2[C@@H](c3ccc(-c4ccc(OC)cc4)c(OC)c3)N[C@@](CC(C)C)(C(=O)OC)[C@H]2C1=O	inconclusive [inhibitor, full curve]	–
Oc1c(N=Nc2ccccn2)ccc2ccccc12	inactive	–
O=c1c2ccccc2sn1-c1ccc(Cl)cc1Cl	active: 11.2 µM	–
CC(=O)Oc1ccc(OC(C)=O)c2c1CC(C)=C(C)C2	inconclusive [inhibitor, full curve, poor fit]	–
CCN(CCNC(=O)Nc1ccc(Cl)cc1)c1ccccc1	inconclusive [inhibitor, single point]	–
COCCNC(=O)C(c1ccc(F)cc1)N(Cc1cccs1)C(=O)CCC(=O)Nc1ccccn1 (centres undefined)	inconclusive [inhibitor, full curve, poor fit]	–
COC(=O)C(NC(=O)c1cccnc1Cl)C(C)C (centres undefined)	inactive	–

Compound	Potency	activity, negative = inhibition
S=c1[nH]nc(-c2ccc(Cl)cc2Cl)n1-c1ccc(Cl)cc1	inactive	–
CC(=O)Oc1oc(-c2ccccc2)nc1C=Nc1ccc(N(C)C)cc1	inactive	–
COc1ccc(C(NCC(=O)NC(C)c2ccc(Cl)cc2)c2ccccc2)cc1 (centres undefined)	inconclusive [inhibitor, partial curve, poor fit]	–
COC1=CC(=O)c2nc(Cl)ccc2C1=O	inconclusive [inhibitor, partial curve]	–
COc1ccc2c(c1)C(=O)CC(c1ccc3c(c1)OCCO3)O2 (centres undefined)	inconclusive [inhibitor, single point]	–
C=CCn1c(-c2ccc(OC)cc2)nc2ccccc21	inactive	–
CC1(C)CC(=O)C2=C(C1)c1c(ccc3ccccc13)NC2c1ccc(OCC(=O)O)cc1 (centres undefined)	inconclusive [inhibitor, full curve]	–
Cc1ccc(-c2nn(-c3ccccc3)cc2CO)o1	inactive	–
Cc1ccc(CN2C(=O)C(C)Nc3ncnc(N4CCN(c5ccccn5)CC4)c32)cc1 (centres undefined)	inconclusive [inhibitor, full curve, poor fit]	–
COC(=O)c1cc2occc2n1Cc1cccc(C)c1	inconclusive [inhibitor, partial curve]	–
CCCn1c(SCC(=O)N2CCN(c3ccccc3)CC2)nc2ccccc2c1=O	inactive	–
C[C@H](CO)N1C[C@H](C)[C@H](CN(C)C(=O)Nc2ccc(F)cc2)Oc2ccc(NC(=O)NC3CCCCC3)cc2CC1=O	inconclusive [inhibitor, single point]	–
O=C(/C=C/c1ccc2c(c1)OCO2)c1ccc[nH]1	inconclusive [inhibitor, single point]	–
CCCNC(=O)c1cc(C2CCCCN2C(=O)c2ccc3ccccc3c2)on1 (centres undefined)	inconclusive [inhibitor, partial curve]	–
O=c1/c(=C/c2ccc(O)c([N+](=O)[O-])c2)sc2nc3ccccc3n12	inconclusive [inhibitor, partial curve, poor fit]	–
O=S(=O)(c1ccccc1)n1ccc2ccccc21	inconclusive [inhibitor, partial curve]	–
O=C1c2cccc3cccc(c23)N1Cc1ccc(F)cc1	inconclusive [inhibitor, partial curve]	–
CC(C)(C)c1ccc(S(=O)(=O)N2CCN(C(=O)C3CCC3)CC2)cc1	inactive	–
Cc1cccc(C(=O)N[C@H](C(=O)Nc2nc3ccc(S(C)(=O)=O)cc3s2)C(C)C)c1	inactive	–
O=C(CN1CCCCC1)Nc1ccccc1Oc1ccccc1	inconclusive [inhibitor, partial curve]	–
O=C(Nc1ccc2ccccc2n1)c1ccccc1	inactive	–
CC(=O)NC(c1cccc(F)c1)c1nc(-c2csc3ccccc23)cs1 (centres undefined)	inconclusive [inhibitor, full curve]	–
CCCC1=NN(c2ccc([N+](=O)[O-])cc2)C(=O)/C1=C\N(C)C	inactive	–

Compound	Potency	activity, negative = inhibition
Cc1ccc(C(=O)c2c(NC(=O)CSc3nnc(N)s3)sc3c2CCCC3)cc1	inconclusive [inhibitor, single point]	–
CCOC(=O)c1c(NC(=O)/C=C/C(=O)O)sc(C)c1-c1ccc(Cl)cc1	inconclusive [inhibitor, partial curve]	–
C#CCOCCOCCOCCNc1nc(N2CCN(C(=O)CCCCCCCCCCNC(=O)Cn3cc(CCCCCN)nn3)CC2)nc(N2CCN(C(=O)CCCCCCCCCCNC(=O)Cn3cc(C[C@@H](C)O)nn3)CC2)n1	inconclusive [inhibitor, single point]	–
CCN(CC)S(=O)(=O)c1ccc(C)c(NC(=O)Cn2cnc3cc([N+](=O)[O-])ccc3c2=O)c1	inconclusive [inhibitor, single point]	–
C[C@@H]1CC(=O)[C@H]2CC(CO)=CCC[C@@H]2[C@@]1(C)CC/C(=C/CO)CO	inconclusive [inhibitor, single point]	–
COc1ccc(C(C)(NC(C)=O)c2nc(-c3cccc(C#N)c3)cs2)cc1 (centres undefined)	inconclusive [inhibitor, partial curve]	–
COc1ccc(-c2n[nH]c(=S)n2-c2ccc(C)cc2)cc1	inactive	–
Cc1cc(C)nc(Nc2ccc(O)cc2)n1	inactive	–
C[C@@H]1CC=C[C@H]2[C@H]1C(=O)N(Cc1ccccc1)[C@H]2c1ccoc1	inconclusive [inhibitor, full curve]	–
Cc1cc(C)cc(N(CCC#N)C(=O)CSC2=Nc3ccccc3C3CC=NN23)c1 (centres undefined)	inconclusive [inhibitor, partial curve]	–
CCCCc1noc(-c2c(-c3ccccc3Cl)noc2C)n1	inconclusive [inhibitor, full curve, poor fit]	–
Cc1cccc(NC(=S)NCCC(c2ccccc2)c2ccccc2)c1	inactive	–
C/C(N)=C(/C#N)C(=O)CSc1nc2ccccc2c(=O)n1-c1ccccc1C	inconclusive [inhibitor, full curve, poor fit]	–
O=C(COC(=O)CCCCCN=C1NS(=O)(=O)c2ccccc21)Nc1ccc(Cl)c(Cl)c1	–	inconclusive: -17.7% [inhibitor]
CCCCCCCC#Cc1ccccc1/C=N/S(=O)c1ccc(C)cc1 (centres undefined)	inconclusive [inhibitor, full curve]	–
Cc1ccc(C)c(N2CCN(C(=O)c3ccc4c(=O)n5c(nc4c3)CCCCC5)CC2)c1	inconclusive [inhibitor, full curve]	–
Cc1ccc2c(c1)C(O)(c1c(C)[nH]c3ccccc13)C(=O)N2 (centres undefined)	inactive	–
CCN(CC)c1nc(N)nc(NS(=O)(=O)c2ccc(Cl)cc2)n1	inactive	–
Fc1ccccc1NC(=S)Nc1ccc(CN2CCOCC2)cc1	inconclusive [inhibitor, full curve, poor fit]	–
Oc1ccc2ccccc2c1C=NC12CN3CCN(CN(C3)C1)C2	inconclusive [inhibitor, single point]	–
CC(=O)Nc1cccc(-c2ccnc3c2CC(C(=O)NCCC(F)(F)F)O3)c1 (centres undefined)	inactive	–
COc1ccc(NC(=O)c2c[nH]c(=O)n(-c3ccc(C)c(C)c3)c2=O)c(OC)c1	inactive	–
CC(=O)C1=CCC(c2cccc(Cl)c2)N(S(=O)(=O)c2ccc(C)cc2)C1 (centres undefined)	inconclusive [inhibitor, single point]	–
